# Among all 420,000 compounds or so, about 50,000 (12%) were called active. Another 26% or so got no clear call; they are omitted. The call rests on the fitted dose curve; in most records, active means well fitted inhibition curve with a large enough effect; inconclusive means small, poorly fitted or top-dose-only effect; inactive means flat fitted curve, though single readings scatter. The list shows a part of the results, in another mix than the full data. Some structures have more than one record in an assay (separate samples or runs), and their calls can disagree.
# Assay: qHTS for Inhibitors of human tyrosyl-DNA phosphodiesterase 1 (TDP1): qHTS in cells in presence of CPT; further: nearly all actives have a fitted effect of over 55% in size
# Conditions: chicken DT40 Tdp1-/-;hTDP1 cells + 20 nM CPT, ATP luminescence, 48 h; series mostly up to 46.2 µM; activity change, negative = growth inhibition: at the top concentration
# Method in brief: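 Cell growth measured by CellTiter-Glo luminescence after a minimum 48 h, 37 C compound exposure with 20 nM CPT in Tdp1-knockout DT40 cells stably expressing hTDP1, seeded 400/well; qHTS titration format.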
# On the % scale 0 is the no-effect control and ±100 the full control effect; potency means the concentration at half of the fitted maximal effect.
SMILES,"activity change, negative = growth inhibition",Potency
CSCCC(C(=O)N1C[C@]2(C)C[C@H]1CC(C)(C)C2)N1C(=O)c2ccccc2C1=O (stereo partly drawn),inactive: -25%,
Cc1ccnc(-n2sc3ccccc3c2=O)n1,,active: 7.31 µM
CCn1cc2nc(SCc3cccc(Cl)c3)n(Cc3ccc(C)cc3)c(=O)c2n1,,active: 20.6 µM
COc1cccc(N2CCN(C(=O)CCS(=O)(=O)c3ccc4c(c3)oc(=O)n4C)CC2)c1,inactive: -19.3%,
CCC(C)n1ncn(-c2ccc(N3CCN(c4ccc(OC[C@H]5CO[C@](Cn6cncn6)(c6ccc(Cl)cc6Cl)O5)cc4)CC3)cc2)c1=O (stereo partly drawn),inactive: -13.8%,
CCOc1ccc(CNC(=O)CCCc2cn(C)c3ccccc23)cc1OC,inactive: -22.2%,
CN1CCN(C(=O)C2=C[C@H](C3CCCCC3)C[C@H](OCc3ccc(CO)cc3)O2)CC1,inactive: -29.6%,
COc1ccc(Nc2oc(/C=C/c3cccc(OC)c3)nc2C#N)cc1,,active: 18.4 µM
C[C@@H]1CN([C@H](C)CO)S(=O)(=O)c2ccc(Br)cc2O[C@H]1CN(C)C(=O)Nc1ccc(F)cc1,inactive: -27.6%,
N#CC(C#N)=C(N)/C(C#N)=C/c1ccc2[nH]ccc2c1,inactive: -8.76%,
COc1cc(OC)cc(-c2noc(-c3csc([C@H]4C[C@H](O)[C@@H](CO)O4)n3)n2)c1,inactive: -27.4%,
O=C(Cn1c(O)c(/C=C2\C=Nc3ccc(Br)cc32)sc1=O)N1CCCC1,,active: 20.6 µM
CNCCC(Oc1ccccc1OC)c1ccccc1 (stereo not drawn),inactive: -2.91%,
COc1cccc(CC2(CO)CCCN(Cc3ccc(OC)c(C)c3OC)C2)c1 (stereo not drawn),,active: 18.4 µM
CCCCCCCC/C=C\CCCCCCCC(=O)NCCc1ccc(O)c(O)c1,,active: 1.03 µM
COc1cccc(CN2CCC2(C)C(=O)Nc2cccc(Oc3ccccc3)c2)c1F (stereo not drawn),,active: 10.3 µM
CCCCN1CC[C@H]2C=CC[C@@H](C(=O)N3CCN(c4ccccc4)CC3)[C@H]2C1=O,inactive: -7.33%,
C[C@]12CC[C@@H]3c4ccc(O)cc4CC[C@H]3[C@@H]1CCC2=O,,inactive
CCCCC(=O)NC1(C(F)(F)F)NC(=O)N(Cc2ccccc2)C1=O (stereo not drawn),inactive: 33.7%,
CC(C)Oc1ccc(CN2CCC2(C)C(=O)Nc2cccc3cccnc23)cc1 (stereo not drawn),,active: 18.4 µM
N#C/C(=C\c1cccs1)c1nc2ccccc2[nH]1,inactive: -18.5%,

SMILES,"activity change, negative = growth inhibition",Potency
O=C(O)CS(=O)CC(=O)NCc1cccc(C(F)(F)F)c1 (stereo not drawn),inactive: 36.8%,
Fc1cccc(CN2CCSCC2)c1,inactive: 47.8%,
O=C(NNC(=O)c1ccc2c(=O)n3c(nc2c1)CCC3)c1ccc(Cl)cc1,inactive: 34%,
Cc1cc(C(=O)OCC(=O)NNC(=O)c2cccs2)ccc1[N+](=O)[O-],inactive: 33.1%,
Cc1ccccc1C(=O)c1cccn1CC(=O)NCc1ccc(Cl)cc1,inactive: -2.32%,
Cc1cccc(C)c1NC(=O)CN1C(=O)CCSc2ccc(S(=O)(=O)N3CCCC3)cc21,inactive: -11.1%,
COc1ccc([C@@H]2C[C@H](c3ccccc3)Oc3cc(OC)c(OC)c(OC)c32)cc1,inactive: -24%,
Cc1cc(C)c2c(CN3CCC(C)CC3)cc(=O)oc2c1,inactive: 12.5%,
CCOc1ccc(Nc2nc3ccccc3c3nnc(CC)n23)cc1,,active: 14.6 µM
Cc1ccc(CCNC(=O)c2sc3ncccc3c2-n2c(C)ccc2C)cc1,,active: 11.6 µM
Cc1cccc(/C=N\NC(=O)c2csnn2)c1,inactive: 30.5%,
Cn1nc(C(=O)N2CCN(c3ccccc3)CC2)c2c1-c1ccccc1S(=O)(=O)C2,inactive: -19%,
CCOC(=O)N1CCN(c2c(NCc3ccc(Cl)cc3)c(=O)c2=O)CC1,,active: 4.11 µM
O=c1c2c([nH]n1-c1ccccc1)CCCC2,inactive: 34.7%,
O=C1C(Nc2ccccc2)=C(N2CCCCC2)C(=O)c2ccccc21,,active: 18.4 µM
CCOc1ccc(CCNC(=O)C(C)n2nc(C)n3c(cc4occc43)c2=O)cc1OCC (stereo not drawn),inactive: -17.1%,
O=S1(=O)N[C@H](Cc2ccccc2)COc2cc(N3CCC[C@H]3CO)ccc21,inactive: -21.3%,
CCCCCCCCCC[N+](C)(C)CC/C=C1/c2ccccc2Sc2ccc(Cl)cc21,,active: 5.17 µM
O=C1N(c2ccccc2)c2ccccc2C1(Cc1ccncc1)Cc1ccncc1,inactive: -38.1%,
CS(=O)(=O)Nc1ccc(C(=O)NC2CCCCC2)cc1,inactive: -2.38%,
COC(=O)c1ccc(CSc2nc3c(c(=O)[nH]2)CCC3)cc1,inactive: -28.7%,

SMILES,"activity change, negative = growth inhibition",Potency
COc1cccc(-c2cc(C(=O)Nc3ccn(Cc4ccc(C)cc4)n3)no2)c1,inactive: -25.3%,
COc1cccc(C(=O)CC2(O)C(=O)N(Cc3ccccc3)c3ccccc32)c1 (stereo not drawn),,active: 6.51 µM
COc1ccc(C(=O)NNS(=O)(=O)c2ccc(C)cc2)cc1,inactive: 13.4%,
CCN1/C(=C/C(=S)Nc2ccccc2)Sc2ccccc21,inactive: -77.9%,
CC1CCN(S(=O)(=O)c2ccc(NC(=O)[C@@H]3CCCC[C@@H]3C(=O)O)cc2)CC1,inactive: 4.62%,
OCC[C@H]1C[C@H](O)[C@@H](O)[C@]2(CCCO2)O1,inactive: -20.8%,
COCCCn1c(=O)c2sccc2n2c(CCCC(=O)NCc3cccc(OC)c3)nnc12,inactive: -3.02%,
O=C1CC(NCC2CCCO2)C(=O)N1c1ccc(F)cc1 (stereo not drawn),inactive: 4.26%,
O=C1/C(=C\c2ccccn2)SC(=S)N1Nc1ncc(C(F)(F)F)cc1Cl,inactive: -26.7%,
CN(CCOc1ccc(CC2SC(=O)NC2=O)cc1)c1ccccn1 (stereo not drawn),,inactive
C[C@H](N=C(NC#N)Nc1ccncc1)C(C)(C)C,inactive: -26.2%,
CCC1Oc2ccccc2N(CC(=O)NCCC2=CCCCC2)C1=O (stereo not drawn),,active: 16.4 µM
O=C(CCN1C(=O)/C(=C\c2cccs2)SC1=S)Nc1ccccn1,inactive: -21%,
O=C(NC1CC1)C1=C[C@H](c2ccc(C(F)(F)F)cc2)C[C@H](OCCCCO)O1,inactive: -8.5%,
COc1ccccc1-c1nc(C(=O)NCC2CCCO2)cc2c1[nH]c1ccccc12 (stereo not drawn),,active: 20.6 µM
Cc1ccc(NC(=O)c2ccc(CN3CC(=O)N4CCCCC4C3=O)cc2)c(C)c1 (stereo not drawn),inactive: -17.2%,
O=C(Cn1ncn2c(cc3ccccc32)c1=O)NCc1ccc(F)cc1,,active: 5.8 µM
Cc1c(NC(=O)CC(C)C)c(=O)n(-c2ccccc2)n1C,inactive: 34.3%,
COCCNC(=O)/C(C#N)=C/C=C/c1ccccc1[N+](=O)[O-],,active: 10.3 µM
N[C@@H](C(=O)N[C@@H]1C(=O)N2C(C(=O)O)=C(Cl)CS[C@H]12)c1ccccc1,inactive: 5.57%,
C[C@@H]1CN([C@@H](C)CO)C(=O)CCCn2nncc2CO[C@@H]1CN(C)S(=O)(=O)c1ccc(Cl)cc1,inactive: -0.887%,

# Reference: PubChem BioAssay AID686979 (National Center for Advancing Translational Sciences (NCATS), 2013)
